Measurements from PubChem BioAssay AID588591 (National Center for Advancing Translational Sciences (NCATS), 2011).
Hit rate of the full screen: of about 390,000 compounds, about 4,700 (1.2%) were called active. About 4% were inconclusive and are not listed. Calls follow the shape of the dose curve; as a rule, active = well fitted inhibition curve with a large enough effect; inconclusive = small, poorly fitted or top-dose-only effect, or another doubt; inactive = no such curve, though single readings can be large or run the other way. This is a selection; strong and weak results do not stand in their true shares.

Target: DNA polymerase eta (Homo sapiens) (UniProt Q9Y253)
Sequence of UniProt Q9Y253 (Q9Y253 whole entry, looked up): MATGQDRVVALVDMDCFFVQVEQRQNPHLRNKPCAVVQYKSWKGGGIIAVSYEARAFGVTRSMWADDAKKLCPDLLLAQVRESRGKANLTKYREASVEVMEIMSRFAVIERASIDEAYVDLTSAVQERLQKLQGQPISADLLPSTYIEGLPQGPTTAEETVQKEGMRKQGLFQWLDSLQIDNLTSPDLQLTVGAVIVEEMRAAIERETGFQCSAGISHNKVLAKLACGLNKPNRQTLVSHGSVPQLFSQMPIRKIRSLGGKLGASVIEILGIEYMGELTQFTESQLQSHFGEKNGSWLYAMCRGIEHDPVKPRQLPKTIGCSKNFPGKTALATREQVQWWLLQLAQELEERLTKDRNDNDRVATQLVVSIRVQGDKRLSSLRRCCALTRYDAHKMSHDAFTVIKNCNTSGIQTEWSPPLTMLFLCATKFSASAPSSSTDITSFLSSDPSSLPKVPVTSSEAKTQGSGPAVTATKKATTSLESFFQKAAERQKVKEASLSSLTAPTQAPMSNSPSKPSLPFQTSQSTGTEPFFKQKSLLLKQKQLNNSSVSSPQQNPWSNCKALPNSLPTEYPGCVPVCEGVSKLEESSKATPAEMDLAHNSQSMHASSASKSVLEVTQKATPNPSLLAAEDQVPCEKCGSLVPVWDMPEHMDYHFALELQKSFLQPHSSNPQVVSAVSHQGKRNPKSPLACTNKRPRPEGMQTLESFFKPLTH
Assay: qHTS for Inhibitors of Polymerase Eta
Conditions: recombinant Pol eta, fluorescent DNA replication assay; series mostly up to 114 µM; activity change, negative = inhibition: at the top concentration
Procedure, shortened: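 Pol eta at 10 nM preincubated with compounds 15 min at room temperature; reaction started with fluorescent substrate (50 nM final) and read kinetically at 0 and 10 min.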
% is scaled to controls: 0 for no effect and ±100 for the full control effect; potency is read from the fitted curve at half-maximal effect.

Row | SMILES | activity change, negative = inhibition | Potency
1 | CCCN(CC1CC1)c1nc(C)nc(Nc2c(Cl)cc(Cl)cc2Cl)c1Cl | inactive: -9.45% [at 57.1 µM] | –
2 | Cc1c(C(=O)O)sc2nc(/C=C/c3cccc(F)c3)[nH]c(=O)c12 | – | active: 79.4 µM
3 | O=C(Nc1cccc(C2=NCCN2)c1)Nc1cccc(C2=NCCN2)c1 | – | active: 22.4 µM
4 | COCCOC(=O)C1=C(C)NC(=O)NC1c1ccco1 (stereo not given) | – | active: 79.4 µM
5 | O=C(CSc1nc2c([nH]c3ccccc32)c(=O)n1-c1cccc(Cl)c1)N1CCOCC1 | inactive: -9.36% | –
6 | CCCCCc1c2c(cc(O)c1C(=O)O)OC(=O)c1cc(C(=O)CCCC)c(OC)cc1O2 | – | active: 79.4 µM
7 | CC(C)[C@H](NC(=O)C1CC(=O)N(c2ccc3c(c2)OCO3)C1)C(=O)NC1CCCC1 (stereo not given in full) | – | active: 31.6 µM
8 | O=C(CN1N=C(c2ccccc2)CCC1=O)NCc1ccc(F)cc1Cl | inactive: 14.1% | –
9 | COC(=O)c1cc(C)cc(=O)o1 | inactive: 34.2% | –
10 | CCC(=O)c1cc(-c2nc3ccccc3n2C)n(C)c1 | inactive: 8.94% | –
11 | COCc1cc(C)nc2sc3c(c12)NC(c1ccccc1C(=O)O)N(c1ccc(OC)cc1)C3=O (stereo not given) | inactive: 16.2% | –
12 | CN(C)c1ccc(NC(=O)CSCc2nc3c(nnn3Cc3ccc(F)cc3)c(=O)[nH]2)cc1 | – | active: 50.1 µM
13 | C=CC[C@H](CC(=O)N(CCO)Cc1ccccc1)C(=O)N[C@@H](COC(=O)[C@H](CC=C)CC(=O)OC(C)(C)C)Cc1c[nH]c2ccccc12 | inactive: -22.2% | –
14 | O=C(Cc1cc(=O)[nH][nH]1)N/N=C/C(Cl)=C/c1ccccc1 | inactive: -13.3% | –
15 | CCN1C(=O)[C@@H]2[C@@H](c3ccc(-c4ccccc4)cc3)N3CCCC[C@@]3(C(=O)OC)[C@@H]2C1=O | inactive: -16.4% | –
16 | Nc1ncnc(Nc2ccc(F)c(Cl)c2)n1 | inactive: 16.9% | –
17 | O=C(c1cc(O)c(O)c([N+](=O)[O-])c1)c1ccccc1F | inactive: -9.05% | –
18 | Cc1c(Cl)cccc1N=Cc1ccc([N+](=O)[O-])s1 | – | active: 89.1 µM
19 | Cc1c(CCC(=O)NCCCCCC(=O)O)c(=O)oc2cc3occ(-c4ccccc4)c3cc12 | – | active: 22.4 µM
20 | CCN(C(=O)C(C)N1C(=O)/C(=C/c2ccco2)SC1=S)C1CCS(=O)(=O)C1 (stereo not given) | – | active: 15.8 µM
21 | O=C(NCc1nc2ccccc2[nH]1)C1=C[C@@H](C2CCCCC2)C[C@@H](OCc2ccc(CO)cc2)O1 | inactive: -9.86% | –
22 | NC[C@H](O)c1ccc(O)c(O)c1 | – | inactive
23 | Cc1cc2oc(C(=O)Nc3ccc(S(=O)(=O)Nc4onc(C)c4C)cc3)cc(=O)c2cc1C | – | active: 79.4 µM

Row | SMILES | activity change, negative = inhibition | Potency
24 | CC(=O)Oc1ccc(C(=O)Nc2cccc(C(=O)c3cccc(NC(=O)c4ccc(OC(C)=O)cc4)c3)c2)cc1 | – | active: 3.16 µM
25 | O=C(CCCN1C(=O)/C(=C\c2cccc(Br)c2)SC1=S)Nc1cccnc1 | inactive: -9.17% | –
26 | C=CCC[C@@H](Cc1ccc(F)cc1)C(=O)OC[C@@H](Cc1c[nH]c2ccccc12)NC(=O)[C@@H](CC=C)CC(=O)N(CCO)Cc1ccccc1 | inactive: -12.7% | –
27 | CCN(CC)c1ccc2cc(-c3nc(-c4cc(OC)c(OC)c(OC)c4)no3)c(=O)oc2c1 | inactive: 94.7% | –
28 | CC(Oc1ccccc1)C(=O)N=Nc1c(O)[nH]c2ccc([N+](=O)[O-])cc12 (stereo not given) | – | active: 35.5 µM
29 | CC(C)OCCCNC(=O)CCCn1c(SCC(N)=O)nc2c(sc3ccccc32)c1=O | inactive: 19.9% | –
30 | CCOCCCn1c(=NC(=O)c2cccnc2)c(C(=O)OCC)cc2c(=O)n3ccccc3nc21 | inactive: -16.4% | –
31 | NC(=O)CSC1=N/C(=C\c2ccco2)C(=O)N1c1ccc(OC(F)F)cc1 | inactive: 31.6% | –
32 | C[C@H](NC(=O)c1nc[nH]c1C(=O)NCC(=O)OCc1ccccc1)c1ccccc1 | inactive: -7.25% | –
33 | CCc1ccc(NC(=O)c2c(C(=O)Nc3ccccc3)sc3nc(C)cc(=O)n23)cc1 | inactive: -6.6% | –
34 | O=C(CSc1nccn1-c1cccc(Cl)c1)NO | inactive: 41.1% | –
35 | Cc1cccc(N2C(=O)/C(=C\c3ccc(C(=O)O)cc3)c3ccccc3C2=O)c1 | – | active: 44.7 µM
36 | CCN(CC)S(=O)(=O)c1ccc2[nH]cc(C(=O)NCCc3ccccc3)c(=O)c2c1 | inactive: 4.45% | –
37 | O=C1CC(N2CCOCC2)C(=O)N1c1ccc(Cl)cc1 (stereo not given) | inactive: 31.4% | –
38 | COc1cc([C@H]2Oc3cc([C@H]4Oc5cc(O)cc(O)c5C(=O)[C@@H]4O)ccc3O[C@@H]2CO)ccc1O | inactive: -7.98% | –
39 | CCc1nn(CC(=O)NCCCc2ccccc2)c(=O)c2cc3c(OC)cccc3n12 | inactive: -8% | –
40 | O=C(c1cc2c(s1)-c1ccccc1S(=O)(=O)C2)N1CCCC1 | inactive: 31% | –
41 | C=CC[C@@H](Cc1ccc(F)cc1)C(=O)OC[C@H]1CCCN1C(=O)[C@H](CC=C)CC(=O)N[C@H](CO)Cc1ccccc1 | inactive: -18.1% | –
42 | CC(=O)Nc1ccc(C=NNc2ccc([N+](=O)[O-])cc2S(=O)(=O)Nc2ccccc2C(=O)O)cc1 | – | active: 50.1 µM
43 | Cc1c(C(=O)Nc2ccc(S(=O)(=O)Nc3ncccn3)cc2)oc2ccccc12 | – | active: 28.2 µM
44 | COc1ccc(-c2nn(-c3ccccc3)cc2/C=C(\C#N)C(N)=O)cc1[N+](=O)[O-] | inactive: 8.48% | –
45 | N#CC(=C(O)COC(=O)CCCNC(=O)c1ccc(Cl)cc1)c1nc2ccccc2[nH]1 | inactive: -16% | –
